Laboratory results reported in publication PMC5892938.
The other results are listed elsewhere or left out. At the low end of the ranking the order means little.

Molecular target: GST-SBP-SLBP (stem-loop binding protein) (UniProt Q14493)
Experiment: targeted RNA Bind-n-Seq;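 further: DESeq read counts versus GST-SBP nonspecific binding control pulldown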
Details: RBNS binding buffer: 25 mM Tris pH 7.5, 150 mM KCl, 3 mM MgCl2, 0.1% Tween, 0.5 mg/mL BSA, 1 mM DTT; 27 nM protein, 750 pM RNA pool; temperature not stated; high values mean tight binding

Sequence | binding signal (log2 fold change)
GGUCACGUCUCAAUCAACUCAUCGCCAGGAGUUUUCUCCUGCUUUUUCAACAGCUCGCAGUCAAG | -0.171
GGUCACGUCUCAAUCAACUCUAUUUCCAGGGAAACCCCUGGCUUACUCAACAGCUCGCAGUCAAG | -0.161
GGUCACGUCUCAAUCAACUCAUCUCCCAGGGAAAUCCCUGGUUAAUUCAACAGCUCGCAGUCAAG | -0.173
GGUCACGUCUCAAUCAACUCUUCGCCCAGGGAAACCCCUGGUAUUCUCAACAGCUCGCAGUCAAG | -0.108
GGUCACGUCUCAAUCAACUCAAAAGAGGGGGGGAAAACCCCUUUGCCCUCAAUGUCAACAGCUCGCAGUCAAG | -0.271
GGUCACGUCUCAAUCAACUCUUUCUCCAGGGAAAGCCCUGGUUUAUUCAACAGCUCGCAGUCAAG | -0.173
GGUCACGUCUCAAUCAACUCAACUUCAGGAGUUUCCUCCUGCAAUCUCAACAGCUCGCAGUCAAG | 0.198
GGUCACGUCUCAAUCAACUCUAUCCCCAGGGAAAACCCUGGUUAACUCAACAGCUCGCAGUCAAG | 0.151
GGUCACGUCUCAAUCAACUCUCUAGAGGGGGGGAAAACCCCUUUGCCCUCACAUUCAACAGCUCGCAGUCAAG | 0.0344
GGUCACGUCUCAAUCAACUCUUUUUCCAGGGAAACCCCUGGCGUAUUCAACAGCUCGCAGUCAAG | 0.0942
GGUCACGUCUCAAUCAACUCAUCGCCCAGGGAAAGCCCUGGUAUUCUCAACAGCUCGCAGUCAAG | 0.0148
GGUCACGUCUCAAUCAACUCUUUCGAGGGGGGGAAAACCCCUUUACCCUCACCUUCAACAGCUCGCAGUCAAG | -0.275
GGUCACGUCUCAAUCAACUCAUAAGAGGGGGGGAAAACCCCUUUGCCCUCAACAUCAACAGCUCGCAGUCAAG | -0.0897
GGUCACGUCUCAAUCAACUCUUCCCCAGGAGUUUUCUCCUGCAAAUUCAACAGCUCGCAGUCAAG | -0.0606
GGUCACGUCUCAAUCAACUCAUUUUCAGGAGUUUACUCCUGCUAUCUCAACAGCUCGCAGUCAAG | 0.147
GGUCACGUCUCAAUCAACUCCUUAGAGGGGGGGAAAACCCCUUUACCCUCAUCAUCAACAGCUCGCAGUCAAG | -0.311
GGUCACGUCUCAAUCAACUCUUCCCCCAGGGAAAUCCCUGGCAUUCUCAACAGCUCGCAGUCAAG | -0.012
GGUCACGUCUCAAUCAACUCUAGUCCCAGGGAAAGCCCUGGCUUAUUCAACAGCUCGCAGUCAAG | -0.0471
GGUCACGUCUCAAUCAACUCAUCGCCCAGGGAAAACCCUGGUAAAUUCAACAGCUCGCAGUCAAG | -0.183
GGUCACGUCUCAAUCAACUCAGUCCCCAGGGAAAUCCCUGGUUAAUUCAACAGCUCGCAGUCAAG | -0.126
GGUCACGUCUCAAUCAACUCAUUUCCAGGAGUUUUCUCCUGUAAUCUCAACAGCUCGCAGUCAAG | 0.0993
GGUCACGUCUCAAUCAACUCUAUGUCAGGAGUUUUCUCCUGUUUUUUCAACAGCUCGCAGUCAAG | -0.188
GGUCACGUCUCAAUCAACUCAAUCCCCAGGGAAAACCCUGGCUUACUCAACAGCUCGCAGUCAAG | -0.08
GGUCACGUCUCAAUCAACUCUUCCUCAGGAGUUUGCUCCUGCAUUUUCAACAGCUCGCAGUCAAG | -0.0533

Sequence | binding signal (log2 fold change)
GGUCACGUCUCAAUCAACUCCAUAGAGGGGGGGAAAACCCCUUUACCCUCAACCUCAACAGCUCGCAGUCAAG | -0.359
GGUCACGUCUCAAUCAACUCUAUUCCAGGAGUUUUCUCCUGUAUACUCAACAGCUCGCAGUCAAG | -0.0748
GGUCACGUCUCAAUCAACUCUUUCGAGGGGGGGAAAACCCCUUUACCCUCAUCGUCAACAGCUCGCAGUCAAG | -0.57
GGUCACGUCUCAAUCAACUCAAUUUCAGGAGUUUUCUCCUGCAUUUUCAACAGCUCGCAGUCAAG | 0.0211
GGUCACGUCUCAAUCAACUCUUUUUCCAGGGAAACCCCUGGUAUUCUCAACAGCUCGCAGUCAAG | 0.000413
GGUCACGUCUCAAUCAACUCCUUCGAGGGGGGGAAAACCCCUUUACCCUCCAUAUCAACAGCUCGCAGUCAAG | -0.245
GGUCACGUCUCAAUCAACUCUACUUCCAGGGAAACCCCUGGUAAACUCAACAGCUCGCAGUCAAG | -0.0539
GGUCACGUCUCAAUCAACUCAUCCCCAGGAGUUUCCUCCUGUUAAUUCAACAGCUCGCAGUCAAG | 0.0457
GGUCACGUCUCAAUCAACUCCAUAGAGGGGGGGAAAACCCCUUUGCCCUCAUCAUCAACAGCUCGCAGUCAAG | -0.0434
GGUCACGUCUCAAUCAACUCUACUUCAGGAGUUUUCUCCUGUUUUUUCAACAGCUCGCAGUCAAG | 0.0312
GGUCACGUCUCAAUCAACUCUACGGAGGGGGGGAAAACCCCUUUACCCUCAUCCUCAACAGCUCGCAGUCAAG | -0.755
GGUCACGUCUCAAUCAACUCUCCGGAGGGGGGGAAAACCCCUUUACCCUCAUCAUCAACAGCUCGCAGUCAAG | 0.00651
GGUCACGUCUCAAUCAACUCAGUUCCAGGAGUUUUCUCCUGUUUUCUCAACAGCUCGCAGUCAAG | -0.111
GGUCACGUCUCAAUCAACUCAUCGCCAGGAGUUUACUCCUGUAAUCUCAACAGCUCGCAGUCAAG | -0.0636
GGUCACGUCUCAAUCAACUCUCUAGAGGGGGGGAAAACCCCUUUACCCUCAAUCUCAACAGCUCGCAGUCAAG | -0.049
GGUCACGUCUCAAUCAACUCAAUCCCCAGGGAAAUCCCUGGUUAUCUCAACAGCUCGCAGUCAAG | 0.153
GGUCACGUCUCAAUCAACUCUACUUCCAGGGAAAGCCCUGGCAUACUCAACAGCUCGCAGUCAAG | -0.195
GGUCACGUCUCAAUCAACUCUCUAGAGGGGGGGAAAACCCCUUUGCCCUCGUCAUCAACAGCUCGCAGUCAAG | 0.374
GGUCACGUCUCAAUCAACUCCAACGAGGGGGGGAAAACCCCUUUACCCUCCACAUCAACAGCUCGCAGUCAAG | -0.142
GGUCACGUCUCAAUCAACUCCCAAAGGUUUUUUUUAGAACCACCCAUCAACAGCUCGCAGUCAAG | 0.338
GGUCACGUCUCAAUCAACUCAAUUUCCAGGGAAAUCCCUGGCUUAUUCAACAGCUCGCAGUCAAG | -0.235
GGUCACGUCUCAAUCAACUCAUUCUCCAGGGAAAUCCCUGGUUAUUUCAACAGCUCGCAGUCAAG | 0.0285
GGUCACGUCUCAAUCAACUCAUCCUCCAGGGAAAUCCCUGGCUUACUCAACAGCUCGCAGUCAAG | -0.0608
